Results from PubChem BioAssay AID1468 (National Center for Advancing Translational Sciences (NCATS), 2008).
Values joined by “and” are separate entries in the source; they are usually repeats but may differ in a detail not shown here. Identical values can stand only once. Out of some 280,000 compounds screened, about 1,100 (0.39%) were called active. The inconclusive results got no clear call from the source; some entries with a clear call stand among them for comparison. Calls follow the shape of the dose curve; as a rule, active = well fitted inhibition curve with a large enough effect; inconclusive = small, poorly fitted or top-dose-only effect, or effect the other way; inactive = flat fitted curve, though single readings scatter. Where the call is inconclusive, the potency comes from a doubtful curve fit.

target: Microtubule-associated protein tau (Homo sapiens) (UniProt P10636); experiment: qHTS for Inhibitors of Tau Fibril Formation, Fluorescence Polarization; conditions: K18 P301L tau heparin fibrillization, Alexa594 FP, 6 h; series mostly up to 57.7 µM; also: nearly all actives have a fitted effect of over 55% in size
Sequence of UniProt P10636 (P10636 whole entry, looked up): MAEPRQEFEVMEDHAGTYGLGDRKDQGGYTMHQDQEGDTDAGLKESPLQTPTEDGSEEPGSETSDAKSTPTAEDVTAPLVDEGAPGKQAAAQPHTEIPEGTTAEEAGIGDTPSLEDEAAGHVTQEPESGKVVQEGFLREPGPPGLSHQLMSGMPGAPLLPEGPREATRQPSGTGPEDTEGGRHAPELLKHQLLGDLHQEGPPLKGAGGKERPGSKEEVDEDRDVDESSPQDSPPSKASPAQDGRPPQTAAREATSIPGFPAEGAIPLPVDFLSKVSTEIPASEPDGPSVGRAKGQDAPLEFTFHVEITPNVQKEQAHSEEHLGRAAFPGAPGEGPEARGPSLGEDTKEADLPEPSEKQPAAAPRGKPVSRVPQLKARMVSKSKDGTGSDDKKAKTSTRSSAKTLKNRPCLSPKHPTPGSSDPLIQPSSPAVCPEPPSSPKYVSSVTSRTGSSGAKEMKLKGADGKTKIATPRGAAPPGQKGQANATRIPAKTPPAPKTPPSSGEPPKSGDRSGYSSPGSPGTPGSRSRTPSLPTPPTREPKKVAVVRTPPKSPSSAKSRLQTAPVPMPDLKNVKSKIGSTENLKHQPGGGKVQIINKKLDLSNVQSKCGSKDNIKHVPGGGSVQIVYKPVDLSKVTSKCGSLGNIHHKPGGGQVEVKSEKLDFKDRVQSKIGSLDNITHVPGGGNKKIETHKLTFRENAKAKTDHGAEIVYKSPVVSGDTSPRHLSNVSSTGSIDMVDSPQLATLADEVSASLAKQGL
Summary of the method: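 Quantitative HTS format: compounds meet 15 uM recombinant K18 P301L tau and Alexa 594-tau tracer in 100 mM sodium acetate pH 7; 20 uM heparin triggers fibrillization at 37 C over 6 hr; FP gives the signal.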
% is scaled to controls: 0 for no effect and ±100 for the full control effect; potency is read from the fitted curve at half-maximal effect; tags tell the direction and shape of the fitted curve.

Potency, inconclusive:
Brc1ccc(N/N=C(/N=Nc2nn[nH]n2)c2ccccc2)cc1 28.2 µM [inhibitor, partial curve]
CCc1ccc(NC(=O)Cn2nc(SC)c(S(=O)(=O)c3ccc(OC)cc3)c2N)cc1 14.1 µM [inhibitor, partial curve]
COc1ccc(-c2ccc(NS(=O)(=O)c3cc(C)c(C)cc3C)cc2)nn1 39.8 µM [inhibitor, single point]
O=C(NC(=S)Nc1ccccc1)c1csnn1 10 µM [inhibitor, partial curve]
COc1ccc(N2CCN(c3nc4ccccc4nc3NS(=O)(=O)c3ccccc3)CC2)cc1 0.0794 µM [activator, full curve, poor fit]
C=CCNC(=O)/C(=C/c1cn(-c2ccccc2)nc1-c1cccc([N+](=O)[O-])c1)NC(=O)c1ccccc1 44.7 µM [inhibitor, single point]
Cc1ccc([N+](=O)[O-])cc1N(CC(=O)Nc1ccc(S(=O)(=O)Nc2cccc(C(F)(F)F)c2)cc1)S(C)(=O)=O 8.91 µM [inhibitor, partial curve]
COc1cc2c(cc1NC(=O)c1cccnc1)oc1ccccc12 44.7 µM [activator, single point]
Cc1cc(C)cc(OCCSc2nc3ccc(NC(=O)COc4ccccc4)cc3s2)c1 25.1 µM [inhibitor, partial curve]
Cc1cc(C)c(-c2cc(NC(=O)COC(=O)c3ccc(C#N)cc3)n(-c3ccccc3)n2)cc1C 25.1 µM [inhibitor, partial curve]
Cc1[nH]c2ccccc2c1C1(O)C(=O)N(Cc2ccccc2)c2ccc(Cl)cc21 (stereo not drawn) 1.58 µM [activator, full curve, poor fit]
Cc1ccc(-n2nc3c(c2NC(=O)c2ccc4c(c2)OCO4)CSC3)cc1 14.1 µM [inhibitor, single point]
Cc1cc(-c2ccc(S(=O)(=O)Nc3ccc(Cl)cc3)cc2)on1 28.2 µM [inhibitor, partial curve]
CC(=O)c1ccc(NC(=O)Nc2sc3nc4n(c(=O)c3c2C)CCC(C)CC4)cc1 (stereo not drawn) 3.55 µM [activator, single point]
CCc1ccc2occ(CC(=O)Nc3ccc(OC)c(Cl)c3)c2c1 35.5 µM [inhibitor, single point]
Cc1c(Br)c(=O)oc2c(Br)c(O)c(O)cc12 39.8 µM [inhibitor, single point]
O=C(O)c1ccc(NS(=O)(=O)c2ccc3c(c2)C2C=CCC2C(c2ccccc2F)N3)cc1 (stereo not drawn) 35.5 µM [inhibitor, single point]
O=C(O)c1ccccc1N1C(=O)C2C3c4ccccc4C(Br)(c4ccccc43)C2C1=O (stereo not drawn) 39.8 µM [inhibitor, single point]
N#C/C(=C/c1ccc(N2CCCCCC2)o1)c1cccc(F)c1 31.6 µM [inhibitor, partial curve]
O=C(NNC(=O)c1sc2cccc(Cl)c2c1Cl)Nc1ccccc1 22.4 µM [inhibitor, partial curve]
COC(=O)c1c(NC(=O)C2c3ccccc3Oc3ccccc32)sc2c1CCC(C(C)(C)C)C2 (stereo not drawn) 15.8 µM [inhibitor, partial curve, poor fit]
Cc1cccc(C(=O)Nc2cccc(OC(=O)c3cccc(C)c3)c2)c1 22.4 µM [inhibitor, partial curve]
O=C(Cn1c[n+](CC(=O)c2ccc([N+](=O)[O-])cc2)cn1)c1ccc([N+](=O)[O-])cc1 39.8 µM [inhibitor, single point] and 14.1 µM [inhibitor, partial curve, poor fit]
CC(CCc1ccccc1)NC(=O)Cn1ncc2c3ccccc3n(Cc3ccccc3)c2c1=O (stereo not drawn) 7.94 µM [inhibitor, partial curve]
CC(C)CNc1ncnc2onc(-c3ccc(Cl)cc3)c12 39.8 µM [inhibitor, single point]
CN(c1cccc(NC(=O)Nc2cccc(Cl)c2)c1)S(C)(=O)=O 20 µM [inhibitor, single point]
Cn1c(=O)c2c(nc(NCCc3ccccc3)n2Cc2ccc(F)cc2)n(C)c1=O 39.8 µM [activator, single point]
COc1cccc(Cn2nnc(C(=O)NCCc3ccc(Cl)cc3)c2N)c1 5.62 µM [inhibitor, full curve]
O=C(COc1ccc(Cl)cc1)N(Cc1ccccc1)c1nc(-c2ccccc2)cs1 3.16 µM [inhibitor, single point]
O=C(CSc1nc2c([nH]c3ccccc32)c(=O)n1-c1ccccc1F)Nc1cccc(C(F)(F)F)c1 25.1 µM [inhibitor, partial curve]
CC(=O)c1ccc(OC(=O)CCc2nc3ccccc3s2)cc1 39.8 µM [inhibitor, single point]
CC1=CC(C)(C)N2C(=O)C3(C(C#N)=C(N)Oc4cc(O)ccc43)c3cccc1c32 (stereo not drawn) 39.8 µM [inhibitor, single point]
O=C(Nc1ccccc1)Nc1nnc(SCC(=O)N2CCCCC2)s1 35.5 µM [inhibitor, single point]
Cc1cccc(Nc2sc(C(=O)c3ccc(Cl)cc3)c(N)c2C(N)=O)c1 44.7 µM [inhibitor, single point]
CCOc1c(C=C(C#N)C#N)c2ccccc2n1CC 12.6 µM [activator, partial curve, poor fit]
COc1ccc(-c2cc(-c3cccs3)nc3sc(C#N)c(N)c23)cc1 20 µM [inhibitor, single point]
O=C(NC(=S)Nc1ccccc1)c1cc([N+](=O)[O-])ccc1N1CCOCC1 44.7 µM [inhibitor, single point]
COc1cccc(-n2nnc3c(=O)n(Cc4ccc(Br)cc4)cnc32)c1 5.01 µM [inhibitor, partial curve]
c1ccc(-c2nnc(-c3ccccc3)c(-c3c[nH]c4ccccc34)n2)cc1 2.24 µM [inhibitor, full curve]
O=c1oc2ccccc2c(N2CCC(c3ccccc3)CC2)c1[N+](=O)[O-] 44.7 µM [inhibitor, single point]
CC1N(C)c2cc(NC(=O)c3ccco3)ccc2C1(C)C (stereo not drawn) 39.8 µM [inhibitor, single point]
CNC(=S)Nc1ccc(C23CC4CC(CC(C4)C2)C3)cc1 39.8 µM [inhibitor, single point]

Potency, active:
Oc1cc2c(cc1O)C1c3ccc(O)c(O)c3OCC1(O)C2 (stereo not drawn) 25.1 µM

Potency, inactive:
COc1ccc(/C=N/N=C2/NC(=O)CC(C(=O)O)S2)cc1 (stereo not drawn)
O=C(O)CCCC(=O)Nc1nc2n(n1)C(c1ccc(F)cc1)CC(c1ccc(Cl)cc1)N2 (stereo not drawn)
O=C(NC(=S)Nc1cccc(NC(=O)c2ccccc2)c1)c1cccc([N+](=O)[O-])c1
C[C@@]1(C(NC(=O)c2ccccc2)c2ccc(-c3ccccc3)cc2)C[C@H]1C1CCCCC1 (stereo partly drawn)
O=C(NCCN1CCOCC1)c1ccc2c(c1)N(Cc1cccc(F)c1)C(=O)c1ccccc1S2
CSc1ccc(-c2nc3cccc(C)n3c2Nc2ccc3c(c2)OCO3)cc1
COc1ccc(-c2nnc(NC(=O)c3ccc(S(=O)(=O)N4CCCc5ccccc54)cc3)o2)cc1
CC1CN(c2ccc([N+](=O)[O-])nc2)CC(C)O1 (stereo not drawn)
COc1ccc(C[C@H]2CN3C(=NC[C@@H]3Cc3ccccc3)N2CCNC(=O)c2ccc(C)c(Br)c2)cc1
COc1cc(C(=O)NCCc2sc(-c3cccc(F)c3)nc2C)cc(OC)c1OC
COC(=O)Cn1cccc1C(=O)c1ccccc1
O=C(NCc1ccco1)c1cccnc1Cl
Cc1cc(O)c(C(C)C)cc1NC(=O)Nc1cccc2ccccc12
Cc1ccc(OCCCN2CCOCC2)c([N+](=O)[O-])c1
O=C(/C=C/c1cccs1)NC(=S)NNC(=O)c1ccccc1O
N#Cc1cn(CCCOc2ccccc2)c2ccccc12
Cc1ccc(N2CC(NC(=O)c3cccs3)CC2=O)cc1 (stereo not drawn)
NNC(=O)c1cccc(S(=O)(=O)Nc2cccc(C(F)(F)F)c2)c1
CCn1cc(C(=O)N2CCN(c3cccc(Cl)c3)CC2)c(=O)c2cc(S(=O)(=O)N3CCC(C)CC3)ccc21
Cc1cccc(C(=O)O/N=C/c2c(N3CCOCC3)n(C)c3ccccc23)c1
CCOc1ccc(OCC)c(NC(=O)CN(C)S(=O)(=O)c2ccc3[nH]c(=O)oc3c2)c1
Cc1cccc(C(=O)Nc2ccc3nc(SCC(=O)N4CCCC4)sc3c2)c1
O=C(c1cccs1)N1CCCc2cc(NS(=O)(=O)c3cc(F)ccc3F)ccc21
O=C(O)c1ccc(COc2c(F)c(F)c(F)c(F)c2F)o1

activity, negative = inhibition, inactive:
CN(C(=O)c1ccc2c(=O)n3c(nc2c1)CCCCC3)c1ccccc1Cl -1.35% [at 0.0958 µM]
